Laboratory results reported in PubChem BioAssay AID1458 (National Center for Advancing Translational Sciences (NCATS), 2008).
Out of some 210,000 compounds screened, about 5,900 (2.8%) were called active. The shares of active, inactive and inconclusive entries below differ from those in the screen. Calls come from the whole dose curve; as a rule, active = well fitted activation curve with a large enough effect; inconclusive = small, poorly fitted or top-dose-only effect; inactive = no such curve, though single readings can be large or run the other way. A potency beside an inconclusive call is a rough fit, not a confirmed value.

Experiment: qHTS Assay for Enhancers of SMN2 Splice Variant Expression; note: nearly all actives have a fitted effect of over 55% in size; for activity change, positive = activation: % of control where 0% means no effect
Details: HEK293 SMN2-luciferase splicing reporter, luminescence, 30-36 h; activity change, positive = activation: at 46.1 µM (top of the series)
Method in brief: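 HEK293 cells carry an SMN2 minigene-luciferase reporter in which exon 7 inclusion puts luciferase in frame. Cells were seeded at 2000 cells/well, attached for 10-12 hours, then exposed to compounds for 30-36 hours at 37C before ONE-Glo luminescence.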
Potency is the fitted concentration of half-maximal effect; tags give direction and shape of the fitted curve.

Compound	Potency	activity change, positive = activation
Cn1c(CCNC(=O)c2ccco2)nc2cc(NC(=O)NC3CCCCC3)ccc21	inconclusive: 35.5 µM [activator, partial curve, poor fit]	–
CCOC(=O)c1sc(NC(=S)NC(=O)c2ccco2)nc1C	inconclusive: 35.5 µM [activator, single point]	–
Cc1ccc(C(=O)NC(=S)N2CCN(c3ccc([N+](=O)[O-])cc3)CC2)cc1	–	inactive: -18.1%
O=C(Cc1cccs1)Nc1nc2c(ccc3ccccc32)s1	inconclusive: 0.0071 µM [activator, full curve, poor fit]	–
CCC(=O)c1ccc(/C=C/c2nc3ccccc3n2C)o1	active: 3.16 µM	–
COc1ccc(C(CNC(=S)NCc2ccccc2)N2CCCC2)cc1 (stereo not given)	inconclusive: 3.16 µM [activator, partial curve]	–
CC(=O)c1ccc(NC(=O)/C(Cl)=C/c2ccccc2)cc1	inconclusive: 25.1 µM [activator, single point]	–
COc1cc(C(=O)NC2=NCCS2)cc(OC)c1OC	inconclusive: 5.62 µM [activator, single point]	–
CN(C(=O)COC(=O)c1n[nH]c2ccccc12)c1ccccc1	inconclusive: 31.6 µM [activator, single point]	–
Cc1nn2c(nc1=O)SCC(c1ccccc1)=N2	inconclusive: 12.6 µM [activator, partial curve, poor fit]	–
O=[N+]([O-])c1cccc(-c2ccc(SCc3ccccn3)nn2)c1	inconclusive: 14.1 µM [activator, single point]	–
Cn1ccnc1SCC(=O)c1ccc2ccccc2c1	inconclusive: 31.6 µM [activator, single point]	–
O=c1oc(/C=C/c2ccccc2)nc2sc3c(c12)CCC3	active: 11.2 µM	–
CCCC(=O)OC(=O)CCC	–	inactive: -0.6%
Cc1c(/C=C/C(=O)c2ccccc2O)cnn1C	active: 15.8 µM	–
Cc1cccc(C(=O)NCc2nnc3c4ccccc4c(-c4ccccc4)nn23)c1	–	inactive: -27.6%
O=C1CN(C(=O)COC(=O)c2ccccc2NCc2ccco2)c2ccccc2N1	inconclusive: 0.141 µM [activator, full curve, poor fit]	–
Cc1nc(C(C)NC(=O)CCc2nnc(CCCc3ccccc3)o2)c(C)s1 (stereo not given)	active: 15.8 µM	–
Cc1oc(C(C)(C)C)cc1C(=O)Nc1ccc(C(=O)O)cc1	inconclusive: 15.8 µM [activator, single point]	–
O=C(N1CCN(c2ccccn2)CC1)N1c2ccccc2Sc2ccccc21	inconclusive: 0.708 µM [activator, full curve]	–
